These results are taken from patent US20170368138A1 (published 2017).

Assay [1] concerns the target U87MG. Description: flow cytometry, cell binding; human U87MG cells. (Flow cytometry measures light scatter and fluorescence of single cells or particles in a stream.)
The target in assay [2] is RF/6A. Description: flow cytometry, cell binding; monkey RF/6A cells.
Assay [3] has as its target CV-1. Description: flow cytometry, cell binding; monkey CV-1 cells.

B1: NOD201 (Fc fusion)
chain: GCPRPRGDNPPLTCSQDSDCLAGCVCGPNGFCG[gap - human IgG1 Fc with changes]
By Kd is commonly meant the equilibrium constant for the complex coming apart. Regarding B1, the Kd was determined as 1.6 nM in assay [1], 0.5 nM in assay [2] and 1.5 nM in assay [3].
